# Source: PubChem BioAssay (Tox21)
# This list was built around the results that the source calls inconclusive (neither active nor inactive); the mix of calls is not that of the screen. No potency is given beside an inconclusive call; the fits are too rough. Active and inactive are the calls of the source. The call rests on the fitted dose curve; in most records, active means well fitted cell-killing curve with a large enough effect in the repeat runs; inconclusive means weak or mixed curves, or effect the other way; inactive means no such curve, though single readings can be large or run the other way.
# Assay: qHTS assay to identify small molecule antagonists of the retinoid-related orphan receptor gamma (ROR-gamma) signaling pathway - cell viability counter screen (AID 1159520); further: nearly all actives have a fitted effect of over 50% in size
# Details: Tet-on RORgamma CHO cells viability, ATP luminescence, 16 h; series mostly up to 92.4 µM
# Text: U.S. Tox21 Program National Center for Advancing Translational Sciences [NCATS] NIH Chemical Genomics Center [NCGC] U.S. Environmental Protection Agency [EPA] National Institutes of Environmental Health Sciences [NIEHS] National Toxicology Program [NTP] U.S. Food and Drug Administration [FDA] Tox21 Assay Overview: Nuclear steroid hormone receptors are involved in many biological processes including inflammatory responses, cell proliferation, and apoptosis. Environmental factors or compounds disrupting these nuclear receptor pathways and gene expression may promote susceptibility to immunotoxicants and autoimmune diseases. One important group of these expression factors are the retinoid-related orphan receptors. To assess compounds that may interfere with the retinoid-related orphan receptor gamma (ROR-gamma) transcription factor, a cell-based luciferase assay was used. The CHO cell-based assay utilizes a TET-inducible ROR expression factor and ROR response element-LUC reporter gene. Reporter gene activity was induced using Doxycycline Hyclate and measured after 16 hr incubation. Tet-on ROR gamma CHO cells were used to screen against the Tox21 10K compound library for cytotoxicity by measuring the viability of the cells based on the quantitation of the ATP.
# Tox21 Assay Protocol Summary: Tet-on ROR gamma CHO cells were dispensed at 1,000 cells in 4 uL of culture medium per well into white wall/solid bottom 1536-well plates using a Multidrop Combi (Thermo Scientific, Waltham, MA) dispenser. Following incubation at 37 C and 5% CO2 for 4 hr, 23 nL of compounds dissolved in DMSO, positive controls or DMSO only were transferred by a Pintool station (Kalypsys, San Diego, CA) and after 2 hr incubation at 37 C, one ul of 1 uM (final concentration) of Doxycycline Hyclate was added to all the wells by using a Flying Reagent Dispenser (FRD) (Aurora Discovery, San Diego, CA). After 16 hr incubation at 37 C and 5% CO2, 5 uL of CellTiter-Glo reagent (Promega Corporation, Madison, WI) was added to each assay plate using FRD. After 30 min incubation at room temperature, luminescence was quantified on a ViewLux plate reader (Perkin Elmer, Waltham, MA).
# On the % scale 0 is the no-effect control and ±100 the full control effect; potency means the concentration at half of the fitted maximal effect; tags describe the fitted curve by direction and shape.
SMILES,Potency,"activity, negative = cytotoxicity"
C=COCCOCCOCCOC=C,inactive,
CCCCS(=O)(=O)N[C@@H](Cc1ccc(OCCCCC2CCNCC2)cc1)C(=O)O,inactive,
CC(=O)c1ccccc1O,inactive,
CCNc1nc(NC(C)(C)C)nc(OC)n1,inactive,
CC(C)CC(=O)C1C(=O)c2ccccc2C1=O,"inconclusive [cytotoxic, partial curve, poor fit]",
O=[N+]([O-])c1ccc(O)cc1C(F)(F)F,"inconclusive [cytotoxic, full curve]",
CC(C)(Sc1cc(C(C)(C)C)c(O)c(C(C)(C)C)c1)Sc1cc(C(C)(C)C)c(O)c(C(C)(C)C)c1,inactive,
O=C1OCCO1,inactive,
CCCCCCCCS(=O)(=O)O,inactive,
OCCOc1cccc(OCCO)c1,inactive,
CC(Cl)COP(=O)(OCC(C)Cl)OCC(C)Cl (stereo not given),inactive,
COc1cc([N+](=O)[O-])ccc1N,inactive,
C=CC(=C)CC/C=C(\C)CCC=C(C)C,,inactive: 3.07% [at 19 µM]
CC(=O)c1ccc(C)cc1,inactive,
CCCCCC/C=C/C(=O)OC,inactive,
CC(=O)N1C[C@H](O)C[C@H]1C(=O)O,inactive,
O=C(NCC1CN(c2ccc(N3CCOCC3=O)cc2)C(=O)O1)c1ccc(Cl)s1 (stereo not given),inactive,
CCCCCCCCC(C)=O,inactive,
Cc1c(C)n(CCN(C)C)c2ccc(C(=O)OCCN(C)C)cc12,inactive,
COc1cc(C)cc(O)c1,inactive,

SMILES,Potency,"activity, negative = cytotoxicity"
COC(=O)Nc1ccc(Cl)c(Cl)c1,inactive,
COC(=O)[C@@H]1[C@H]2C[C@H]3c4[nH]c5ccccc5c4CCN3C[C@@H]2CC[C@@H]1O,inactive,
COC(=O)c1cc(Cl)ccc1NS(=O)(=O)C(F)(F)F,"inconclusive [rising, full curve, poor fit]",
C=CCCCCCCCC,inactive,
O=[N+]([O-])c1ccc(NCCO)c(OCCO)c1,inactive,
CCC(C)C1CCCCC1=O (stereo not given),inactive,
O=C1NC(=O)C2CC=CCC12 (stereo not given),inactive,
Cc1ncc([N+](=O)[O-])n1CCO,"inconclusive [cytotoxic, partial curve, poor fit]",
CCC(=O)c1ccc(O)cc1,inactive,
CCCCSCCCC,inactive,
NCCCCCC(=O)O,inactive,
CCCCCCCCN(C)C,inactive,
CC(C)C(=O)OCCc1ccccc1,inactive,
CCc1c(C(=O)O)c(=O)cnn1-c1ccc(Cl)cc1,inactive,
O=C(NS(=O)(=O)/C=C/c1cccs1)c1ccc(F)cc1Br,inactive,
CCOC(=O)Cn1c(=O)sc2cccc(Cl)c21,inactive,
CC(C)(O)CCCC1=CCC(C=O)CC1 (stereo not given),inactive,
Cc1ccc(S)cc1,"inconclusive [cytotoxic, single point]",
CC(C)CC(C)(N)C#N (stereo not given),inactive,
Cn1c(NCCN(CCO)CCCc2ccc([N+](=O)[O-])cc2)cc(=O)n(C)c1=O,inactive,
